Experimental data taken from PubChem BioAssay AID651567 (National Center for Advancing Translational Sciences (NCATS), 2012).
The campaign covered roughly 1,200 compounds. About 10 (0.8%) were called active. Roughly 4% stayed inconclusive and do not appear here. Calls come from the whole dose curve; as a rule, active = well fitted inhibition curve with a large enough effect; inconclusive = small, poorly fitted or top-dose-only effect; inactive = no such curve, though single readings can be large or run the other way. This is one part of the list.

assay: qHTS Assay to Find Inhibitors of Chronic Active B-Cell Receptor Signaling: Hit Validation in OCI-Ly3 Assay; details: OCI-Ly3 IkB-luciferase reporter, Chroma-Glo luminescence, 4 h; series mostly up to 46.1 µM; activity change, negative = inhibition: at the top concentration
Summary of the method: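 Readout is dual-colour luminescence: IkB-alpha-luciferase fusion (green) against unfused luciferase (red), plus their ratio, scaled between basal cells and 10 uM MG-132. OCI-Ly3 cells, 0.5% FBS IMDM, compound with doxycycline (80ng/ml solution), 4 hrs at 37C; curves fitted and classed.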
% is set by controls: 0 for no effect and ±100 for the full control effect.

Activity change, negative = inhibition, inactive:
Cc1ccc(NC(=S)NC(=O)C2CC2)cc1Cl -5.51%
Cc1ccc(N=Nc2c(C)[nH]n(C(N)=S)c2=O)cc1 0.657%
COCCNC(=S)N/N=C(\C)c1ccc(Cl)c(Cl)c1Cl -2.44%
COc1cc(OC)cc(C(=O)NCC(=O)Nc2ccc(-c3ccccc3)cc2)c1 -4.77%
Cc1ccc(Sc2c(CO)c(-c3ccccc3)nn2C)cc1 -4.65%
CCCCC[C@H](O)/C=C/[C@H]1CCC(=O)[C@@H]1CCCCCCC(=O)N1CCCCC1CO (some centres undefined) -4.81%
Nc1ncnc2c1ncn2C1OC(C(=O)NC2CC2)C(O)C1O (centres undefined) -1.22%
O=C(NC(=S)NC1CCSC1=O)c1ccccc1 (centres undefined) -1.04%
Cc1ccc(C(=O)Oc2ccc(Cl)c3cccnc23)cc1[N+](=O)[O-] -14.9%
COc1cc(OC)c2c(-c3cccc(-c4sccc4C(C)=O)c3)cc(=O)oc2c1 -5.56%
COc1cc2c(c(OC)c1OC)-c1ccc(N(C)CC(OC)OC)c(=O)cc1[C@@H](NC(C)=O)CC2 -2.06%
NS(=O)(=O)c1cc(C(=O)OCC(=O)N2CCc3ccccc3C2)ccc1Cl -0.117%
COc1cc2c(cc1OC)-c1cc(Nc3ccc(C)cc3)nc(=O)n1CC2 -0.409%
COc1ccc2[nH]c3c(c2c1)CCN1C(=O)C(CC(=O)NCC24CC5CC(CC(C5)C2)C4)C[C@H](C(=O)N2CCCCC2)[C@@]31C (some centres undefined) -2.31%
CCSc1nc(-c2ccccc2)nc(C(Cl)Cl)n1 0.632%
CCCn1nnc(NC(=S)NC(=O)Cc2ccccc2)n1 -0.762%
COc1cc(C2=NOC(C(=O)NCc3ccco3)C2)cc(OC)c1OC (centres undefined) -0.186%
COc1cc(-c2noc(C)c2/C=C/c2ccc(OC(C)=O)cc2)cc(OC)c1OC -5.99%
C/C(=N\NC(=O)COc1ccc(C(C)(C)C)cc1)c1ccc(N2CCOCC2)cc1 -1.5%
COc1cc(OC)c(OC)cc1/C=C1\CCC/C(=C\c2cc(OC)c(OC)cc2OC)C1=O -10.7%
COC(=O)c1ccccc1NC(=O)Cn1c(-c2nonc2N)nc2ccccc21 -0.301%
COc1cc2c(cc1C1NC(=S)NC(C)=C1C(N)=O)CCCC2 (centres undefined) -3.96%
NC(=S)NN=C1c2ccccc2-c2ccccc21 -0.434%
COc1cccc(N2CCN(C(=O)c3ccc(CS(=O)c4ccc(C)cc4)o3)CC2)c1 (centres undefined) -1.52%
Cc1ccc(-c2cc(C(=O)N/N=C/c3c(C)nn(-c4ccccc4)c3C)[nH]n2)cc1 -14.7%
OC[C@H]1O[C@@H](n2cnc3c(NC4CCCC4)nc(Cl)nc32)[C@H](O)[C@@H]1O -0.38%
Cc1ccc(/C=N/NC(=O)c2cc(-c3cccnc3)nc3ccccc23)cc1 -5.97%
Cc1c(/C=N\NC(=O)C2COc3ccccc3O2)c2ccccc2n1C (centres undefined) -2.63%
CCC(=O)Nc1ccc(SC#N)cc1C -0.423%
CC1C(=O)N2CCCc3cc(NC(=O)c4ccccc4Br)cc1c32 (centres undefined) -10.2%
Oc1ccc(CNc2ccccc2F)c2cccnc12 -0.396%
COc1ccc(OC)c(C2CC(=O)c3c([nH]c(C(=O)OC(C)C)c3C)C2)c1 (centres undefined) -5.41%
Cc1[nH][nH]c(=O)c1C(c1c(C)[nH][nH]c1=O)c1cn(Cc2ccc(F)cc2)c2ccccc12 -14.1%
CCC1=Nc2cc(C(=O)NCc3ccccc3Cl)ccc2Sc2ccc(C)cc21 -3.05%
COc1cc(SSc2cc(OC)cc([N+](=O)[O-])c2N)c(N)c([N+](=O)[O-])c1 -0.114%
CCNC(=S)NNc1ccccc1 0.566%
COc1ccc(C=C2c3ccccc3C(=O)c3ccccc32)c(OC)c1 -2.64%
CCOc1ccccc1CNS(=O)(=O)c1ccc(-c2cnc(C3CC3)o2)cc1 -5.8%
CC1=NN(C(N)=S)C(=O)C1N=Nc1ccc(F)cc1 (centres undefined) -3.94%
COc1ccc(C2=NN(C(C)=O)C(c3cccs3)C2)cc1OC (centres undefined) -0.471%
Cc1cc(C)c2cc(C=O)c(Cl)nc2c1 -2.95%
CCn1c2ccccc2c2cc(NC(=O)c3cc(OC)cc(OC)c3)ccc21 -7.74%
c1ccc(C2=Nn3c(nnc3-c3n[nH]c4c3CCC4)SC2)cc1 -7.69%
Cc1nc2ncccn2c1-c1csc(Nc2ccc(N(C)C)cc2)n1 -3.43%
COc1cc2c(cc1OC)-c1cc(Nc3ccccc3C)nc(=O)n1CC2 -0.0229%
COc1ccc(C(=O)c2ccc(OC)c(N)c2)cc1N -1.03%
CCOC(=O)C(C)N1C(=O)S/C(=C/c2cc(C)n(-c3ccccn3)c2C)C1=O (centres undefined) -0.476%
Cc1ccccc1Nc1c(N)c(=O)oc2ccccc12 -0.754%
Cc1ccc(/C=[N+](\[O-])c2ccc(N(C)C)cc2)c2nsnc12 -0.758%
S=C(NCCN1CCOCC1)N/N=C/c1cccs1 -0.495%
Cc1cc(C)cc(NS(=O)(=O)c2ccc(-c3cnc(C4CC4)o3)cc2)c1 -13.9%
COC(=O)Nc1nc(-c2ccccc2)c(C(=O)c2ccc(Cl)cc2)s1 -1.03%
c1ccc2c(-c3csc(-c4ccncc4)n3)c[nH]c2c1 -2.65%
O=C(N/N=C/C(Br)=C\c1ccccc1)c1n[nH]c2c1CCC2 -10.5%
COC(=O)c1ccc(CNC(=O)Cn2cnc3c(NCc4ccccc4)ncnc32)cc1 -0.322%
CCOc1ccc(S(=O)(=O)NCc2ccccn2)cc1NC(=O)c1ccccc1F -1.14%
COc1ccc(-c2c3c(=O)n(C)c(=O)n(C)c3cn2N2CCOCC2)cc1 0.543%
Cc1noc(C)c1COc1cccc(C(=O)OCC(=O)N2CC(=O)Nc3ccccc32)c1 -1.2%
Nc1nc(SCc2nc(-c3ccccc3)no2)[nH]c(=O)c1-c1ccccc1 -0.0938%
CCOC(=O)CSC1=C(C#N)C(c2ccc(C)s2)CC(=O)N1 (centres undefined) -6.8%
N#Cc1ccc(-c2cccs2)nc1SCc1cccnc1 0.156%
OC[C@H]1O[C@@H](n2cnc3c(Nc4ccccc4)ncnc32)[C@H](O)[C@@H]1O -7.37%
CC1CCC(n2c(=S)[nH]c3ccccc3c2=O)CC1 (centres undefined) 0.0597%
COCc1ccc(O)c2ncccc12 -0.501%
COc1ccc2c(c1)sc1nc(-c3ccccc3)cn12 16.8%
COc1cccc(CN2c3ccc(Br)cc3C(=O)CS2(=O)=O)c1 -1.51%
O=C(Nc1cccc2ccccc12)c1cc2c(cc1Br)OCO2 -1.38%
COc1ccc(/C=N/NC(=O)c2[nH]c3ccc(Cl)cc3c2-c2ccccc2)c(C(=O)O)c1OC -0.725%
COc1ccc(NC(=S)NC(=O)/C=C/c2ccco2)cc1 -0.564%
CCN(CC)c1ccc(/C=N/NC(=S)NC)c(O)c1 -0.53%
CCOc1ccccc1C1CC(=O)Nc2cc3c(cc21)OCCO3 (centres undefined) -3.49%
Cc1onc(-c2ccccc2)c1C(=O)Nc1cc(C(F)(F)F)ccc1N1CCOCC1 -2.04%
CCOC(=O)COc1cccc2c(=O)n(CC(=O)NCc3ccc(F)cc3)ccc12 -1.96%
CCOC(=O)/C=C/C(=O)OCC(=O)Nc1ccc(OC)c(Cl)c1 -1.28%
Cc1ccsc1/C=C/C1=NCCCN1C -0.623%
O=C(CSc1cc(Cl)ccc1Cl)Nc1ccc(N2CCOCC2)cc1 -1.42%
CCCCC[C@H](O)/C=C/[C@@H]1[C@@H](C/C=C\CCCC(=O)OC)[C@@H](O)C[C@H]1O 0.506%
COc1cc(/C=C2\OC(=O)c3c(OC)cccc32)ccc1O -3.21%
COc1cc(-c2noc(C)c2C#Cc2ccsc2)cc(OC)c1OC -5.39%
O=C(N/N=C/c1ccc(Cl)cc1)c1sccc1OCc1ccc(F)cc1 -7.2%
COc1ccccc1C(=O)Nc1ccccc1SC(=O)c1ccccc1OC -25.4%
CCOC(=O)c1ccc(NC(=O)Nc2ccon2)cc1 -4.1%
COc1ccc(NC(=S)N=Nc2c(O)[nH]c3ccccc23)cc1 -8.1%
COCCNC(=S)N/N=C(\C)c1ccccc1F -0.283%
CCC1CCCCN1C(=S)NC(=O)c1cccs1 (centres undefined) -0.476%
COc1cc2c(cc1OC)-c1cc(NC3CCCCCC3)nc(=O)n1CC2 -2.73%
COc1ccc(/C=N/NC(=O)CCn2cnc(-c3ccccc3)c2-c2ccccc2)cc1 -18.7%
COc1ccc2c(c1)C(C)=CC(C)(C)N2S(=O)(=O)c1ccc(C)cc1 -3.93%
Cc1ccc2c(c1)C(=O)C(=O)N2CCOc1ccccc1 -2.23%
CCn1c2ccccc2c2cc(NC(=O)c3cc(OC)c(OC)c(OC)c3)ccc21 -9.48%
CCN(C(=O)c1cnc(NC(C)C)cc1C(F)(F)F)c1ccc(Cl)cc1Cl -1.47%
COc1ccc(COC(=O)c2cc([N+](=O)[O-])ccc2N2CCOCC2)cc1F -2.2%
CC1(CCc2ccc(O)cc2)NC(=O)NC1=O (centres undefined) -0.179%
O=c1cc(-c2ccc(F)cc2)[nH][nH]1 0.0278%
CCN(CC)S(=O)(=O)c1ccc(N2CCOCC2)c(NC(=O)c2[nH]c(C)c(C(C)=O)c2C)c1 -12.8%
CCN(c1cccc(C)c1)S(=O)(=O)c1ccc(-c2cc(C)no2)s1 -2.75%
COc1ccc(OC)c(C2C3=C(COC3=O)Nc3cc4c(cc32)OCO4)c1 (centres undefined) -1.69%
Oc1ccc(NCc2ccccc2OCc2ccccc2)cc1 -13.7%
COc1ccc(/C=N/NC(=O)C(=O)N2CCCCCC2)cc1[N+](=O)[O-] -0.482%
COc1cc(OC)cc(C(=O)Oc2c(CN3CCOCC3)cc(Cl)c3cccnc23)c1 -0.47%
CNC(=S)N/N=C(\C)c1ccc(Cl)s1 -3.11%
CC(=O)c1ccc2c(c1)CC(C)C(=O)N2C (centres undefined) -0.581%
O=[N+]([O-])c1cc(Cl)c2cccnc2c1O -1.59%
Cc1nnc2ccc(-c3ccc(NS(=O)(=O)c4ccccc4[N+](=O)[O-])cc3)nn12 -2.67%
CCOc1cccc(/C=C/c2ccc3cccc(O)c3n2)c1OC -19.1%
COc1ccc2cc(C3c4cc(OC)c(OC)cc4CCN3C(=O)c3ccco3)c(=O)[nH]c2c1 (centres undefined) -1.32%
COc1ccc(-c2nn(-c3ccccc3)cc2/C=N/NC(N)=S)cc1OC -9.92%
O=C1CC(c2ccccc2)Cc2nc3ncnn3cc21 (centres undefined) 0.367%
CNc1nc(-c2ccc(OC)cc2)c(-c2ccc(OC)cc2)s1 -0.769%
